In assay [1] the test system is B. cenocepacia J2315. The assay can be described thus: MIC in planktonic cells, 2-fold microdilution with resazurin. As to conditions: for bactericidal or bacteriostatic activity: 1 to 128 μg/ml, planktonic cells; for MIC: Burkholderia cenocepacia, J2315, 48 h, read-out: MIC against B. cenocepacia.
Assay [2] deals with B. cenocepacia J2315 biofilms. Description: Biofilm assay (confocal microscopy).
For assay [3], the system named is B. cenocepacia J2315. As to conditions: for C. elegans survival: infected with B. cenocepacia J2315; for protection of C. elegans against infection: infection with B. cenocepacia J2315.
Where [4] appears, read: 1 μM, versus untreated control biofilm.
Setting [5] is: 10 μM, 25 μM and 100 μM, 24 h biofilm.

Values joined by “and” are separate entries in the source; they are usually repeats but may differ in a detail not shown here. Equal entries are not always repeated. Where two headings read alike, the source gives them in different places.

As to `O=C1CNC(=O)C(c2cc(OCc3ccccc3)ccc2OCc2ccccc2)N1` (stereo not shown) [6a], in assay [1], the “bactericidal or bacteriostatic activity” value was “did not show any bactericidal or bacteriostatic activity”. In addition, the MIC in assay [1] is above 128 µg/mL. Further, the biofilm morphology entry was “minor differences” in assay [2] (setting [4]); “less structured, contained fewer cells and were unable to colonize the entire surface of the well” in assay [2] (setting [5]). The C. elegans survival in assay [3] (1 μM, 24 h) was 73 ± 10 %; in assay [3] (1 μM, 48 h) it was 56 ± 11 %; in assay [3] (5 μM, 24 h), 86 ± 6 %; in assay [3] (5 μM, 48 h), 66 ± 5 %; in assay [3] (10 μM, 24 h), 88 ± 17 %; in assay [3] (10 μM, 48 h) it was 74 ± 11 %. The C. elegans survival in assay [3] (25 μM, 24 h) was 91% and 91 ± 9 %; in assay [3] (25 μM, 48 h), 82 ± 5 %. The “protection of C. elegans against infection” value in assay [3] is given as “significantly protected”.

Regarding `O=C1N[C@H](Cc2ccccc2)C(=O)NC1c1cc(OCc2ccccc2)ccc1OCc1ccccc1` (stereo partly shown) [6b], in assay [1], the “bactericidal or bacteriostatic activity” value is given as “did not show any bactericidal or bacteriostatic activity” and the MIC was above 128 µg/mL.

Turning to `CC(C)[C@H]1NC(=O)C(c2cc(OCc3ccccc3)ccc2OCc2ccccc2)NC1=O` (stereo partly shown) [6c], in assay [1], the “bactericidal or bacteriostatic activity” value was “did not show any bactericidal or bacteriostatic activity” and the MIC was above 128 µg/mL.

Take `O=C1CNC(=O)C(c2cc(O)ccc2O)N1` (stereo not shown) [7a]: in assay [1], the “bactericidal or bacteriostatic activity” value is recorded as “did not show any bactericidal or bacteriostatic activity” and the MIC was above 128 µg/mL.

Turning to `O=C1N[C@H](Cc2ccccc2)C(=O)NC1c1cc(O)ccc1O` (stereo partly shown) [7b], in assay [1], the “bactericidal or bacteriostatic activity” value is recorded as “did not show any bactericidal or bacteriostatic activity” and the MIC was above 128 µg/mL.

For the molecule `CC(C)[C@H]1NC(=O)C(c2cc(O)ccc2O)NC1=O` (stereo partly shown) [7c], in assay [1], the “bactericidal or bacteriostatic activity” value is reported as “did not show any bactericidal or bacteriostatic activity” and the MIC was above 128 µg/mL.

As to `O=C1C=CC(=O)C(C2NC(=O)CNC2=O)=C1` (stereo not shown) [8a], in assay [1], the “bactericidal or bacteriostatic activity” value is recorded as “did not show any bactericidal or bacteriostatic activity” and the MIC is above 128 µg/mL.

Turning to `O=C1C=CC(=O)C(C2NC(=O)C(Cc3ccccc3)NC2=O)=C1` (stereo not shown) [8b], in assay [1], the “bactericidal or bacteriostatic activity” value is “did not show any bactericidal or bacteriostatic activity”. Besides, the MIC in assay [1] was above 128 µg/mL. The biofilm morphology result in assay [2] (setting [4]) is “minor differences”; in assay [2] (setting [5]), “less structured, contained fewer cells and were unable to colonize the entire surface of the well”. Further, the C. elegans survival in assay [3] (1 μM, 24 h) is on record as 84 ± 2 %; in assay [3] (1 μM, 48 h), 50 ± 6 %; in assay [3] (5 μM, 24 h) it was 89 ± 4 %; in assay [3] (5 μM, 48 h), 55 ± 9 %; in assay [3] (10 μM, 24 h), 93 ± 7 %; in assay [3] (10 μM, 48 h), 70 ± 7 %. The C. elegans survival was 91% and 91 ± 5 % in assay [3] (25 μM, 24 h); 75 ± 3 % in assay [3] (25 μM, 48 h). For the same molecule, in assay [3], the “protection of C. elegans against infection” value is “significantly protected”.

For `CC(C)C1NC(=O)C(C2=CC(=O)C=CC2=O)NC1=O` (stereo not shown) [8c], the “bactericidal or bacteriostatic activity” value in assay [1] is reported as “did not show any bactericidal or bacteriostatic activity”.

Regarding `CC(=O)Oc1ccc(OC(C)=O)c(C2C(=O)N(C(C)=O)CC(=O)N2C(C)=O)c1` (stereo not shown) [compound 9], the “bactericidal or bacteriostatic activity” value in assay [1] is “did not show any bactericidal or bacteriostatic activity”.
